# Results: PubChem BioAssay AID463173 (ICCB-Longwood Screening Facility, Harvard Medical School, 2010)
# The whole screen tested about 52,000 compounds, of which about 1,700 (3.3%) were called active. Rule as the data show it: active = survival mostly below about 52% (no sharp cut-off); inactive = mostly above about 56%. The list shows a part of the results.
# Test system: Wild type
# Assay: growth inhibition of S. aureus wild type versus tarO mutant, primary screen, teichoic acid synthesis inhibitors, RN4220, OD600 (AID 463173)
# Conditions: S. aureus RN4220 wild type/DeltatarO growth, OD600, 18 h, hits give low values, screened at 18.75 µg/mL (by protocol)
row,Structure (SMILES),survival
1,CCn1c(C(=O)NCCc2ccc(S(N)(=O)=O)cc2)cc2sc(Cl)cc21,inactive: 88%
2,O=C1Cc2cc(S(=O)(=O)N3CCN(c4cccc(Cl)c4)CC3)ccc2N1,inactive: 90%
3,CC(=O)N1CCCC1c1nc2ccccc2n1Cc1ccccc1Cl (stereo unspecified),inactive: 86%
4,CCC1CN(C(=O)N2CCC(C(=O)NCCc3ccc(OC)cc3OC)CC2)c2cc(C)ccc2O1 (stereo unspecified),inactive: 118%
5,Cc1cccc(OCc2nc(CC(=O)Nc3ccc(Cl)cc3)cs2)c1,inactive: 92%
6,Cc1cc(Nc2ccc(Br)cc2)nc(C)n1,inactive: 84%
7,Cc1cccc(C)c1-n1ncc(C(=O)NCCCN2CCC(C)CC2)c1C1CCN(C(=O)OC(C)(C)C)CC1,inactive: 63%
8,CCOC(=O)c1cnc2c(ccc3ccccc32)c1Nc1ccc(C(C)=O)cc1,active: 0%
9,COc1cccc(CSc2nc3ccncc3n2CC(=O)Nc2ccc(OC)c(OC)c2OC)c1,inactive: 122%
10,COc1ccccc1CNC(=O)Cc1csc2nc(-c3ccc(F)cc3)cn12,inactive: 85%
11,Cc1ccc(NC(=O)c2ccco2)cc1NC(=O)CSc1ncnc2sc3c(c12)CCC3,inactive: 101%
12,O=S(=O)(c1ccc(Cl)cc1)c1nc(-c2cccs2)oc1N1CCCCC1,inactive: 45%
13,CCc1cc2c(cc3c(=O)n(CC(=O)NC(C)c4ccccc4)ncn32)s1 (stereo unspecified),inactive: 83%
14,CCc1ccccc1NC(=O)C1CCN(S(=O)(=O)c2cn(C)cn2)CC1,inactive: 74%
15,CCOC(=O)c1sc2ccccc2c1S(=O)(=O)NCc1ccccc1OC,inactive: 69%
16,COc1cccc(NC(=O)CCN2C(=O)c3ccccc3Sc3ncccc32)c1,inactive: 116%
17,Cc1cc(C)nc(-n2nc(C)c3c2N(Cc2ccccc2F)C(=O)CC3c2ccc(Cl)cc2)n1 (stereo unspecified),inactive: 115%
18,CCC(=O)N1CCc2cc(Br)cc(S(=O)(=O)NCCc3cccc(C)c3)c21,inactive: 99%
19,Cc1cccc(C(=O)Nc2cc3c(cc2C)n(C)c(=O)n3C)c1,inactive: 74%

row,Structure (SMILES),survival
1,Cc1nnc(N2CCN(C(=O)NCCC(C)C)CC2)c2nn(-c3ccc(Cl)cc3)c(C)c12,inactive: 87%
2,CCc1ccc(S(=O)(=O)Nc2cccc(-c3ccc(N4CCCCC4)nn3)c2)s1,inactive: 71%
3,O=C1C(c2ccc(F)cc2)N(CCc2ccc(Cl)cc2)C(=O)CN1C1CCCCC1 (stereo unspecified),inactive: 69%
4,Cc1cc(C)c2nc(C)cc(Nc3cccc(C(=O)O)c3)c2c1,inactive: 69%
5,CCOc1cc(C(=O)Nc2cc3c(cc2N2CCCC2)n(C)c(=O)c(=O)n3C)cc(OCC)c1OCC,inactive: 79%
6,O=C(Nc1sc2c(c1C(=O)NCc1ccco1)CCCC2)c1cc(=O)c2cc(Cl)ccc2o1,inactive: 79%
7,CCC(=O)NCC1(c2ccccc2)CCCC1,inactive: 102%
8,O=C(c1ccccc1)N1CCN(S(=O)(=O)c2ccccc2)CC1,inactive: 101%
9,COc1ccc(NC(=O)Nc2cc(-c3cn4cccnc4n3)ccc2C)cc1,inactive: 91%
10,O=C(NC1CCN(Cc2ccccc2)CC1)c1ccc(Cn2c(=O)c3ccccc3n(Cc3ccc(Cl)cc3)c2=O)cc1,inactive: 80%
11,CC(=O)N1CCc2c(sc3c2c(=O)n(-c2ccccc2)c(=O)n3CC(=O)c2ccccc2)C1,inactive: 89%
12,CC(=O)N1CCC(N(Cc2ccc(C)o2)C(=O)Nc2cccc(C(F)(F)F)c2)CC1,inactive: 63%
13,Cc1ccc2c(c1)-c1nc(-c3ccc4c(c3)NC(=O)CO4)cc(-c3ccccc3)c1CO2,inactive: 80%
14,O=C(CCCCn1c(=O)c2ccccc2n(Cc2cccc(F)c2)c1=O)NCCc1ccccc1,inactive: 108%
15,Cc1ccc(C)c(NC(=O)CN2C(=O)CCc3cc(S(=O)(=O)N4CCCCC4)ccc32)c1,inactive: 22%
16,CC(=O)Nc1ccc(NC(=O)c2ccc3c(c2)N(Cc2cccc(Cl)c2)C(=O)c2ccccc2S3=O)cc1 (stereo unspecified),inactive: 66%
17,Cc1ccc(Cn2c(=O)n(Cc3ccccc3)c(=O)c3oc4ccccc4c32)cc1,inactive: 86%
18,CC(=O)N1CCc2cc(S(=O)(=O)NC(Cc3ccccc3)C(=O)NCc3ccccc3)ccc21 (stereo unspecified),inactive: 85%
19,O=C(CC1N=C2c3ccccc3N=C(SCc3ccc(F)cc3)N2C1=O)NCCc1ccccc1 (stereo unspecified),inactive: 58%

row,Structure (SMILES),survival
1,Cc1cccc(Cn2c(-c3ccccc3)nc3ccccc32)c1,active: 26%
2,O=C(CSc1nccn1-c1ccc(F)cc1)Nc1nc2ccccc2s1,inactive: 97%
3,COc1ccc2[nH]c3c(c2c1)CCN(C(=O)CCC1CCCC1)C3c1ccc(F)cc1 (stereo unspecified),inactive: 64%
4,CC(C)(C)OC(=O)N1CCC(c2c(C(=O)N3CCN(c4ccccn4)CC3)cnn2-c2ccc(F)cc2F)CC1,inactive: 71%
5,Cc1ccc(-c2cnc(C3CC3)o2)cc1S(=O)(=O)Nc1cccc(C)c1C,inactive: 84%
6,CC(C)(C)c1ccc(C(=O)NCC(=O)OCc2cc(=O)n3nc(C4CC4)sc3n2)cc1,inactive: 94%
7,O=C(CSc1ncnc2c1cnn2-c1ccccc1)c1ccccc1,inactive: 108%
8,CCN1CCN(c2csc3ccc(Br)cc3c2=O)CC1,inactive: 83%
9,COc1ccc(NC(=O)C2CCCN(S(=O)(=O)c3c(C)[nH]c(=O)[nH]c3=O)C2)cc1OC (stereo unspecified),inactive: 130%
10,CCCCCn1cnc2c1c(=O)[nH]c(=O)n2C,inactive: 115%
11,Cc1ccc(NC(=O)C2CCCN(c3ncnc4c3nc3n4CCCCC3)C2)c(Br)c1 (stereo unspecified),inactive: 82%
12,CCn1c(=O)c2cc(C(=O)NCc3cc(OC)ccc3OC)sc2c2ccccc21,inactive: 86%
13,COC(=O)c1c(NC(=O)c2ccc(OC)cc2OC)sc2c1CCCCC2,inactive: 56%
14,COc1ccc(CC(C)NS(=O)(=O)c2ccc3c(c2)CCN3S(C)(=O)=O)cc1OC (stereo unspecified),inactive: 134%
15,COc1ccc(Cl)cc1NCc1nnc2n1CCCCC2,active: 0%
16,COc1ccc(NC(=O)c2oc3ccccc3c2NC(=O)c2cc(=O)c3cc(Cl)ccc3o2)cc1,inactive: 84%
17,CN(C)CC(C)(C)C1OCC2(CO1)COC(C(C)(C)CN(C)C)OC2 (stereo unspecified),inactive: 110%
18,CCOc1ccc2nc(NC(=O)c3nc(SCc4ccccc4F)ncc3Cl)sc2c1,inactive: 95%
